# Test results reported in PubChem BioAssay (NCATS).
# Values joined by “and” are separate entries in the source; they are usually repeats but may differ in a detail not shown here. Equal values may be shown once. Inconclusive results, whose numbers are uncertain, are shown with a selection of clear calls. For some assays here: Potencies of inconclusive entries are doubtful fits and often do not repeat. Active and inactive are the calls of the source. Calls follow the shape of the dose curve; as a rule, active = well fitted curve in the direction sought with a large enough effect; inconclusive = small, poorly fitted or top-dose-only effect, or another doubt; inactive = no such curve, though single readings can be large; an effect the other way counts as inactive or inconclusive.
# Assays:
# [1] = qHTS for Inhibitors of Plasmodium falciparum (DD2) proliferation (AID 504314); also: potency is read from the fitted curve at half-maximal effect
# How it was run: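 Quantitative HTS growth inhibition: SYBR Green I binding to parasite DNA after 72 h drug exposure of infected erythrocytes (0.3% parasitemia, 2.5% hematocrit). Signals normalized per plate to inhibitor and vehicle wells.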
# [2] = qHTS for Inhibitors of Plasmodium falciparum (7G8) proliferation (AID 504316); also: nearly all actives have a fitted effect of over 65% in size; also: potency is read from the fitted curve at half-maximal effect;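 as to activity change, negative = inhibition: 0% = DMSO vehicle and -100% = 0.29 µM artemisinin full kill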; settings: P. falciparum 7G8 in erythrocytes, SYBR Green DNA, 72 h; activity change, negative = inhibition: at 6.7 µM (top of the series)
# How it was run: (§1)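 Erythrocytes infected with P. falciparum line (0.3% parasitemia, 2.5% hematocrit final) incubated with compounds 72 h at 37 °C, 5% CO2; SYBR Green lysis buffer added, fluorescence read next day. Normalized to 0.29 uM artemisinin and DMSO.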
# [3] = qHTS for Inhibitors of Plasmodium falciparum (HB3) proliferation (AID 504318); also: nearly all actives have a fitted effect of over 60% in size; also: potency is read from the fitted curve at half-maximal effect;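 as to activity change, negative = inhibition: 0% = DMSO vehicle and -100% = artemisinin control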; settings: P. falciparum HB3 in erythrocytes, SYBR Green DNA, 72 h; activity change, negative = inhibition: at 7.21 µM (top of the series)
# How it was run: as §1
# [4] = qHTS for Inhibitors of Plasmodium falciparum (CP250) proliferation (AID 504320); also: potency is read from the fitted curve at half-maximal effect
# How it was run: as §1
# [5] = tested on: ATS95; test: qHTS profiling for inhibitors of Plasmodium falciparum proliferation (AID 504749);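 also: 0% = DMSO vehicle and full inhibition = artemisinin control; nearly all actives have a fitted effect of over 60% in size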; settings: P. falciparum in erythrocytes, SYBR Green DNA, 72 h; series mostly up to 28.7 µM
# How it was run: (§2)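 Parasite proliferation within erythrocytes, 72 h exposure. Endpoint: SYBR Green I fluorescence after overnight lysis at room temperature. Controls: 0.29 uM artemisinin, DMSO.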
# [6] = tested on: CP325; test: as above; settings: P. falciparum in erythrocytes, SYBR Green DNA, 72 h; series mostly up to 28.7 µM
# How it was run: as §2
# [7] = tested on: CP335; test: as above; settings: P. falciparum in erythrocytes, SYBR Green DNA, 72 h; series mostly up to 28.7 µM
# How it was run: as §2
# [8] = tested on: DIV14; test: as above; settings: P. falciparum in erythrocytes, SYBR Green DNA, 72 h; series mostly up to 28.7 µM
# How it was run: as §2
# [9] = tested on: W2; test: as above; settings: P. falciparum in erythrocytes, SYBR Green DNA, 72 h; activity, negative = inhibition: at 28.7 µM (top of the series)
# How it was run: as §2
# [10] = target: Cytochrome P450 3A4 (Homo sapiens) (UniProt P08684); test: qHTS Assay for Inhibitors and Substrates of Cytochrome P450 3A4 (AID 884); settings: recombinant CYP3A4, Luciferin-PPXE luminescence; activity change, negative = inhibition: at 57.1 µM (top of the series); also: potency is read from the fitted curve at half-maximal effect; nearly all actives have a fitted effect of over 50% in size
# Chain of UniProt P08684 (P08684 whole entry, looked up): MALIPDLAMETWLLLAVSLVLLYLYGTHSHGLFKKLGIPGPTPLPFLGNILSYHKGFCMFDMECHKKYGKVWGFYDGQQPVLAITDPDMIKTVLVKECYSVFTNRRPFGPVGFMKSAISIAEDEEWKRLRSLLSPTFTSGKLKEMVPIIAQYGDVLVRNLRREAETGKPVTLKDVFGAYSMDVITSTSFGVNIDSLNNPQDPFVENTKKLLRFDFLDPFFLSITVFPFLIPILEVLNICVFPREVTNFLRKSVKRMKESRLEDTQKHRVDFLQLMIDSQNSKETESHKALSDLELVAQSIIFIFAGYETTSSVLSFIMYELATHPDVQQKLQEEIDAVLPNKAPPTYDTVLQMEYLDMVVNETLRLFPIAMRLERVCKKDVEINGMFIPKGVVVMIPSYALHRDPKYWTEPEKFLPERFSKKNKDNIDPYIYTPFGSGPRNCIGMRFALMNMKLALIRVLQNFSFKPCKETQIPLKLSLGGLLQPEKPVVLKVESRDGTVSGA
# How it was run: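 20 nM human CYP3A4 with 25 uM Luciferin-PPXE (at KM) in 200 mM KPO4, preincubated 10 min with compound; NADPH regeneration started a 60 min RT reaction. Luciferin detected by luminescence, normalized to 57 uM ketoconazole as full inhibition.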
# [11] = target: Ubiquitin carboxyl-terminal hydrolase 1 (Homo sapiens) (UniProt O94782); test: Inhibitors of USP1/UAF1: Pilot qHTS (AID 504865);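 also: rhodamine fluorescence freed from ubiquitin-rhodamine substrate followed over time; potency is read from the fitted curve at half-maximal effect; nearly all actives have a fitted effect of over 35% in size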
# Chain of UniProt O94782 (O94782 whole entry, looked up): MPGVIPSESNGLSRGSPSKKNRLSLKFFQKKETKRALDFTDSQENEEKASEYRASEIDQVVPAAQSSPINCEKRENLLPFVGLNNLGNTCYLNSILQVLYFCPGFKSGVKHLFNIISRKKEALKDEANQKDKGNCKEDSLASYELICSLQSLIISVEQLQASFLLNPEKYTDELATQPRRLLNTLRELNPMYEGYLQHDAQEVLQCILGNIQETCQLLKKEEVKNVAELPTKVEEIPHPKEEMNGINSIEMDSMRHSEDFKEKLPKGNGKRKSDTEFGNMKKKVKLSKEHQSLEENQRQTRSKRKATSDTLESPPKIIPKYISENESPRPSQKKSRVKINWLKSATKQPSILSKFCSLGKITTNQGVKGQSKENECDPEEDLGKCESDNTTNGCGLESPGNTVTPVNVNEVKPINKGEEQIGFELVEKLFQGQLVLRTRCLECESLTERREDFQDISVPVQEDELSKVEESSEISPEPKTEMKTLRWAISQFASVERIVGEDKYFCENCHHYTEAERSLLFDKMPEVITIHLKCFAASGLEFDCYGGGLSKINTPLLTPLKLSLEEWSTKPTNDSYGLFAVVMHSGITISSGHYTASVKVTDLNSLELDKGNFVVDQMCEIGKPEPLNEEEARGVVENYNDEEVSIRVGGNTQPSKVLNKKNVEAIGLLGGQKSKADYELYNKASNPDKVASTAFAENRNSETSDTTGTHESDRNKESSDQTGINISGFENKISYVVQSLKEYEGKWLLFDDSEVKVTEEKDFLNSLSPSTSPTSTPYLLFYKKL
# How it was run: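 Deubiquitinase activity followed as kinetic rhodamine fluorescence release from 150 nM Ub-Rho. 1 nM USP1/UAF1 with compound, after 15 min room-temperature preincubation, in HEPES pH 7.8 buffer containing TCEP, EDTA, BSA and Tween-20.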
# [12] = qHTS for Inhibitors of Plasmodium falciparum (GB4) proliferation (AID 504315); also: potency is read from the fitted curve at half-maximal effect; nearly all actives have a fitted effect of over 50% in size; settings: P. falciparum GB4 in erythrocytes, SYBR Green DNA, 72 h; activity change, negative = inhibition: at 6.7 µM (top of the series)
# How it was run: as §1
# Tags tell the direction and shape of the fitted curve.
structure (smiles),measurement,setting,value
c1ccc(-c2nc(-c3cccc4ccccc34)c(Nc3ccc4ccccc4c3)o2)cc1,Potency,[1],"inconclusive: 3.36 µM [inhibitor, single point]"
same,Potency,[2],active: 1.51 µM
same,Potency,[3],active: 1.51 µM
same,Potency,[4],"inconclusive: 2.13 µM [inhibitor, single point]"
CC1(OC(=O)C2CCCC2)C(=O)C=C2C=C(c3ccsc3)N(CCCCO)C=C2C1=O (configuration not stated),Potency,[3],inactive
CS(=O)(=O)OCC(O)C(O)COS(C)(=O)=O (configuration not stated),Potency,[5],inactive
same,Potency,[6],inactive
same,Potency,[7],inactive
same,Potency,[8],inactive
same,"activity, negative = inhibition",[9],inconclusive: -41% [inhibitor]
COC(=O)N[C@@H](c1cccc(C)c1)C(C(C)=O)C(=O)OC (some centres not stated),Potency,[3],inactive
Nc1[nH]nc2nc3ccccc3nc12,Potency,[10],"inconclusive: 126 nM [inhibitor, full curve, poor fit]"
same,Potency,[11],"inconclusive: 56.2 µM [inhibitor, partial curve]"
COc1ccc(-c2nc(-c3ccccc3)c(Nc3ccc4ccccc4c3)o2)cc1,Potency,[12],"inconclusive: 1.69 µM [inhibitor, partial curve]"
same,Potency,[2],"inconclusive: 2.13 µM [inhibitor, single point]"
same,Potency,[3],active: 1.69 µM
same,Potency,[4],"inconclusive: 1.9 µM [inhibitor, single point]"
COc1ccc(-c2nc(-c3ccccc3)c(Nc3c(C)cccc3C)o2)cc1,Potency,[12],"inconclusive: 1.9 µM [inhibitor, single point]"
same,Potency,[2],"inconclusive: 1.51 µM [inhibitor, partial curve]"
same,Potency,[3],"inconclusive: 1.69 µM [inhibitor, partial curve]"
C#CCCCON=C1C[C@@H](O)[C@@H](O)[C@@H]2[C@H]3C(=O)N([C@@H](C)c4ccccc4)C(=O)[C@@H]3CC[C@H]12,Potency,[1],"inconclusive: 3.36 µM [inhibitor, partial curve, poor fit]"
same,Potency,[2],"inconclusive: 1.9 µM [inhibitor, partial curve]"
same,Potency,[3],"inconclusive: 1.9 µM [inhibitor, single point]"
CCOC(=O)CCCNC(=O)N1CCc2nc(-c3ccc(OC)cc3C)c3c(c2C1)CO[C@@H](c1ccccc1)C3,Potency,[2],active: 1.69 µM
same,Potency,[3],"inconclusive: 1.51 µM [inhibitor, partial curve] and inconclusive: 1.9 µM [inhibitor, single point]"
same,Potency,[4],inconclusive: 0.0008 µM [activator]
CCCCc1nc2c(c3c1C[C@H](C)OC3)CN(C(=O)Cc1cccc(OC)c1)CC2,Potency,[1],"inconclusive: 4.24 µM [inhibitor, single point]"
same,Potency,[12],"inconclusive: 0.849 µM [inhibitor, partial curve]"
same,Potency,[2],"inconclusive: 1.69 µM [inhibitor, single point] and inconclusive: 4.26 µM [inhibitor, single point]"
same,Potency,[3],"inconclusive: 3.01 µM [inhibitor, single point]"
same,Potency,[4],inconclusive: 0.0013 µM [activator]
CCOC(=O)NN=C1C[C@@H](O)[C@@H](O)[C@@H]2[C@H]3C(=O)N(C4CCCCC4)C(=O)[C@@H]3CC[C@@H]12,Potency,[2],inactive
